PubChem BioAssay (Tox21)
This list was built around the results that the source calls inconclusive (neither active nor inactive); the mix of calls is not that of the screen. For part of these data: Where the call is inconclusive, the potency comes from a doubtful curve fit. Some structures have more than one record in an assay (separate samples or runs), and their calls can disagree. Calls of active or inactive are those of the source. Unless noted, calls follow the shape of the dose curve; as a rule, active = well fitted curve in the direction sought with a large enough effect in the repeat runs; inconclusive = weak or mixed curves; inactive = no such curve, though single readings can be large; an effect the other way counts as inactive or inconclusive.

Legend:
[1] = molecular target: Glucocorticoid receptor (Homo sapiens) (UniProt P04150); test: qHTS assay to identify small molecule antagonists of the glucocorticoid receptor (GR) signaling pathway (AID 720692; active = well fitted inhibition curve with a large enough effect in the signal ratio in the repeat runs, not every such curve was filed as active; inconclusive = weak or mixed curves, or effect the other way; inactive = no such curve, though single readings can be large or run the other way; the % refers to the signal ratio; also: potency is read from the fitted curve at half-maximal effect); details: GR-bla HeLa, beta-lactamase FRET ratio, dexamethasone-stimulated, 18 h; activity change, negative = inhibition: at 58.5 µM (top of the series) unless noted
Sequence of UniProt P04150 (P04150 whole entry, looked up): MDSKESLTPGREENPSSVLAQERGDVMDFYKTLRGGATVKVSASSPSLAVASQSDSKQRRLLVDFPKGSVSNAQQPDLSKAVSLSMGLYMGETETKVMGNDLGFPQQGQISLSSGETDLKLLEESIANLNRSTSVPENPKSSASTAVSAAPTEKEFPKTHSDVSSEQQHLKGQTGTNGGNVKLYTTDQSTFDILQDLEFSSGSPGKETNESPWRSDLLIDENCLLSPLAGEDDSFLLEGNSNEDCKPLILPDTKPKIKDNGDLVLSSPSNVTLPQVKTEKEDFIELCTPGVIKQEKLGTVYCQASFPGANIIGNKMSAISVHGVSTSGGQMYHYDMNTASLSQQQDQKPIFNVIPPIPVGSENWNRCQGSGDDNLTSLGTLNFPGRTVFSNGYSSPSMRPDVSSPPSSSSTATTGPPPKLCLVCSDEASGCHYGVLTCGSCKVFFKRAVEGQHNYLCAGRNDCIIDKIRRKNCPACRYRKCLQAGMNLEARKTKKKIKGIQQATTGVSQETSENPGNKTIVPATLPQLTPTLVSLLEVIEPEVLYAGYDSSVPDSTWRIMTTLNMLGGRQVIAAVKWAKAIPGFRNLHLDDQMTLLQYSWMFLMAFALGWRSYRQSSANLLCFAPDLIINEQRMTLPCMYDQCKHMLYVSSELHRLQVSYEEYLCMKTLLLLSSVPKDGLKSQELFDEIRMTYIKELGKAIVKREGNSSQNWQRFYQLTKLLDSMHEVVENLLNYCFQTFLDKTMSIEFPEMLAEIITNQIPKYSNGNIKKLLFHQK
Method in brief: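 Tox21 10K library screened in concentration-response for blockade of dexamethasone (5 nM final)-induced GRE-bla reporter activity in HeLa cells; 18 h treatment, fluorescence read.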

[2] = qHTS assay for identifying genotoxic compounds that show differential cytotoxicity against isogenic chicken DT40 cell lines with known DNA damage response pathways - wild type cell line (AID 743012); details: DT40 wild type chicken cells viability, CellTiter-Glo, 40 h; activity change, negative = cytotoxicity: at 68.4 µM (top of the series) unless noted; also: nearly all actives have a fitted effect of over 60% in size; also: potency is read from the fitted curve at half-maximal effect
Method in brief: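 Endpoint: CellTiter-Glo luminescence, 30 min RT. Cells: wild type DT40, 300/well. Exposure: compounds in DMSO, 40 h, 37 C/5% CO2, after ~0.5 h pre-incubation.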

[3] = molecular target: Peroxisome proliferator-activated receptor gamma (Homo sapiens) (UniProt P37231); test: qHTS assay to identify small molecule antagonists of the peroxisome proliferator-activated receptor gamma (PPARg) signaling pathway (AID 743191; calls by dose curve; also: nearly all actives have a fitted effect of over 30% in size; also: potency is read from the fitted curve at half-maximal effect; as to ratio activity, negative = inhibition: % is scaled to controls: 0 for no effect and ±100 for the full control effect); details: HEK293H PPARg-UAS-bla, beta-lactamase ratio, antagonist, 17 h; ratio activity, negative = inhibition: at 62.6 µM (top of the series) unless noted
Sequence of UniProt P37231 (P37231 whole entry, looked up): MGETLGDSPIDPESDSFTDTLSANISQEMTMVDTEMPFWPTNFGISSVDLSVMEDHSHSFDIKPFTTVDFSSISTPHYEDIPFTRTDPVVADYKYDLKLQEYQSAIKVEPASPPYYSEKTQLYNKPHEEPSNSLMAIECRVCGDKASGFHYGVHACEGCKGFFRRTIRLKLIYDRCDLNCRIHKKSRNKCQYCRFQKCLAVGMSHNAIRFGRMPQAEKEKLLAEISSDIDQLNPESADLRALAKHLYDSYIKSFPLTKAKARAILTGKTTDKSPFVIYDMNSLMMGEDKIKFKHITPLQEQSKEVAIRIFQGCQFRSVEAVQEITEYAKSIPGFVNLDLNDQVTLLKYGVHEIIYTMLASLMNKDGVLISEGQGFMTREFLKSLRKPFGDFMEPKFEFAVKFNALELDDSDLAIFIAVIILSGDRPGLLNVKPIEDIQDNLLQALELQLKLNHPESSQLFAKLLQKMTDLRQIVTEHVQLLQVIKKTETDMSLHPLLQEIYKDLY
Method in brief: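 GeneBLAzer PPARg UAS-bla HEK293H cells, 5 h post-plating, exposed to compounds 17 h at 37C. LiveBLAzer B/G FRET substrate added for 1 h at room temperature; beta-lactamase reporter read by fluorescence intensity.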

[4] = qHTS assay for small molecule agonists of the antioxidant response element (ARE) signaling pathway (AID 743202; active = well fitted activation curve with a large enough effect in the signal ratio in the repeat runs, not every such curve was filed as active; inconclusive = weak or mixed curves, or effect the other way; inactive = no such curve, though single readings can be large or run the other way; the % refers to the signal ratio; also: potency is read from the fitted curve at half-maximal effect; as to activation: % is scaled to controls: 0 for no effect and ±100 for the full control effect); details: HepG2 ARE-bla reporter, beta-lactamase FRET, 16 h; activation: at 73.3 µM (top of the series) unless noted
Method in brief: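 HepG2 ARE-bla reporter line, 2,000 cells/well; 5 h preincubation 37 C/5% CO2; compound (DMSO) 16 h 37 C; B/G FRET substrate 2 h RT; fluorescence intensity.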

[5] = qHTS assay to identify small molecule agonists of the farnesoid-X-receptor (FXR) signaling pathway - cell viability counter screen (AID 743218); details: FXR-bla HEK293T viability, CellTiter-Glo luminescence, 16 h; viability change, negative = cytotoxic: at 62.6 µM (top of the series); also: nearly all actives have a fitted effect of over 45% in size; also: potency is read from the fitted curve at half-maximal effect; as to viability change, negative = cytotoxic: % is scaled to controls: 0 for no effect and ±100 for the full control effect
Method in brief: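 Same-well cytotoxicity check on FXR-UAS-bla HEK 293T cells: 5 h attachment, 16 h compound at 37 C, CellTiter-Glo luminescence read at room temperature after 30 min.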

[6] = molecular target: Retinoic acid receptor RXR-alpha (Homo sapiens) (UniProt P19793); test: qHTS assay to identify small molecule agonists of the RXR signaling pathway (AID 1159527; calls by dose curve; also: nearly all actives have a fitted effect of over 35% in size; also: potency is read from the fitted curve at half-maximal effect); details: HEK293T RXRa-UAS-bla, beta-lactamase ratio, 16 h
Sequence of UniProt P19793 (P19793 whole entry, looked up): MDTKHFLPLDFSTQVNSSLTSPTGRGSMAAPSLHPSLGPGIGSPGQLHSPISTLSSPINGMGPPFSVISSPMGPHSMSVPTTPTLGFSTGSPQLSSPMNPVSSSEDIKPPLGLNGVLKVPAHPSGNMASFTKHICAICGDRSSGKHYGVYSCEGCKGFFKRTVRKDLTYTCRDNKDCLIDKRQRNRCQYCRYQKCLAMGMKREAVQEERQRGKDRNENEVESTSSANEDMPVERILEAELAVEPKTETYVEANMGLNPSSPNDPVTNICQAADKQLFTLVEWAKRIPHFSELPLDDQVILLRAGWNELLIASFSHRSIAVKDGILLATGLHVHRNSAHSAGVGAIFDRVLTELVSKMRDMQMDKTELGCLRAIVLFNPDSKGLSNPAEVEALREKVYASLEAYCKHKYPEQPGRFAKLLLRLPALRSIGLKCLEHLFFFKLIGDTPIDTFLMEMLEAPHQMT
Method in brief: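 GeneBLAzer RXR-alpha-UAS-bla HEK 293T cells in 2% charcoal-stripped FBS medium were exposed to compounds for 16 hr at 37 C in agonist mode. Beta-lactamase reporter read as 460/530 nm FRET ratio after 2 hr substrate loading.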

[7] = qHTS assay to identify small molecule agonists of the RXR signaling pathway - cell viability counter screen (AID 1159529); also: nearly all actives have a fitted effect of over 50% in size; also: potency is read from the fitted curve at half-maximal effect
Method in brief: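 RXR-alpha-UAS-bla HEK 293T cells in medium with 2% charcoal-stripped FBS were pre-incubated 5 hr, then compound-treated 16 hr at 37 C. Viability was read by CellTiter-Glo luminescence in the same wells as the beta-lactamase assay, with tetraoctyl ammonium bromide as positive control.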

[8] = qHTS assay to identify small molecule antagonists of the sonic hedgehog signaling (Shh) pathway (AID 1259369; calls by dose curve; also: potency is read from the fitted curve at half-maximal effect; nearly all actives have a fitted effect of over 45% in size)
Method in brief: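 NIH/3T3 stable Gli1-Luc clone, 2,000 cells/well, 4hr settle; cpd + conditioned medium 24hr; Luc reagent 30min RT; luminescence.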

[9] = molecular target: Progesterone receptor (Homo sapiens) (UniProt P06401); test: qHTS assay to identify small molecule antagonists of the progesterone receptor (PR) signaling pathway (AID 1346795; active = well fitted inhibition curve with a large enough effect in the signal ratio in the repeat runs, not every such curve was filed as active; inconclusive = weak or mixed curves; the % refers to the signal ratio; also: potency is read from the fitted curve at half-maximal effect); details: PR-UAS-bla HEK293T, beta-lactamase FRET ratio, 16 h; activity change, negative = inhibition: at 92.4 µM (top of the series) unless noted
Sequence of UniProt P06401 (P06401 whole entry, looked up): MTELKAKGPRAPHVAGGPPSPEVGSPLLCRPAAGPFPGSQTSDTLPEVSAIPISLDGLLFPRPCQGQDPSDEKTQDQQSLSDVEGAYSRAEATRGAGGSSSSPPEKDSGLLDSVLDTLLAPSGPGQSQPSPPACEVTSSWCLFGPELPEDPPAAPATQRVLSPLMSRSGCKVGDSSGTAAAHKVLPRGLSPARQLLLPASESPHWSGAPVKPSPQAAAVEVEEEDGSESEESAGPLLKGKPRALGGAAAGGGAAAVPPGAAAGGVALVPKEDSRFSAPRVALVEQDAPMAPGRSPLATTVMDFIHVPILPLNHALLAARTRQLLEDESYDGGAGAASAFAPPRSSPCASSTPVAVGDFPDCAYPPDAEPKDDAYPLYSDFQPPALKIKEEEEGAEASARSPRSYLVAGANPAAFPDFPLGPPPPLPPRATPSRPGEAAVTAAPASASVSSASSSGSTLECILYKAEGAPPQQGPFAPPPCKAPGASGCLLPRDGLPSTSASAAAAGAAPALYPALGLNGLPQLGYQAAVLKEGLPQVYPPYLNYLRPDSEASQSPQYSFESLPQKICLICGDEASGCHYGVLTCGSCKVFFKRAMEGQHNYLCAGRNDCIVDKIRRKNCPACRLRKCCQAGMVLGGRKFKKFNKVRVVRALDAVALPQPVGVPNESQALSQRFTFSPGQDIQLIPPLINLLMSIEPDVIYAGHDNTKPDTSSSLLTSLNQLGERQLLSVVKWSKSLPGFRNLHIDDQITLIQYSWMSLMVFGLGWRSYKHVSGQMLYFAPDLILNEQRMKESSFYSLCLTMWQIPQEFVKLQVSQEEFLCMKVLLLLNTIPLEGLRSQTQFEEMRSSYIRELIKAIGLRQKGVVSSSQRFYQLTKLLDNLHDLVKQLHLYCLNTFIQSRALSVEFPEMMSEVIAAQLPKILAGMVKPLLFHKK
Method in brief: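 PR-UAS-bla HEK293T cells with beta-lactamase reporter under UAS control, in 2% charcoal-stripped FBS, treated with compounds plus 1 nM promegestone (R5020, final) for 16 hr at 37C. Read-out: FRET beta-lactamase substrate fluorescence after 2 hr at room temperature.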

[10] = qHTS assay to identify small molecule agonists of the progesterone receptor (PR) signaling pathway - cell viability counter screen (AID 1346799; calls by dose curve; also: potency is read from the fitted curve at half-maximal effect; nearly all actives have a fitted effect of over 45% in size)
Method in brief: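 Counter screen in the PR-UAS-bla HEK293T wells (2% charcoal-stripped FBS, 16 h compound exposure at 37 C) after the bla read. CellTiter-Glo added, 30 min at room temperature, luminescence read as cell viability.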

[11] = qHTS assay for small molecule disruptors of the mitochondrial membrane potential (AID 720635); details: HepG2 mitochondrial membrane potential, Mito-MPS dye ratio; also: potency is read from the fitted curve at half-maximal effect
Method in brief: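 HepG2 cells exposed to compound 1 hr at 37C, then Mito-MPS dye 30 min. Ratio read of aggregate (540/590 nm) versus monomer (490/535 nm) fluorescence.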

[12] = qHTS assay to identify small molecule antagonists of the thyroid receptor (TR) signaling pathway - cell viability counter screen (AID 743064); details: GH3.TRE-Luc viability, CellTiter-Fluor, 24 h; activity change, negative = cytotoxic: at 70.3 µM (top of the series) unless noted; also: potency is read from the fitted curve at half-maximal effect; nearly all actives have a fitted effect of over 50% in size
Method in brief: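 GH3.TRE-Luc rat pituitary cells dosed after 4 hr plating, co-stimulated with T3 at 1 nM final, incubated 23.5 h at 37 C. Viability measured in the same wells by CellTiter-Fluor fluorescence after 30 min further at 37 C.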

[13] = molecular target: Cytochrome P450 2D6 (Homo sapiens) (UniProt P10635); test: Cytochrome P450 Family 2 Subfamily D Member 6 (CYP2D6) small molecule antagonists: luciferase reporter qHTS assay (AID 1671196); also: nearly all actives have a fitted effect of over 50% in size; also: potency is read from the fitted curve at half-maximal effect
Sequence of UniProt P10635 (P10635 whole entry, looked up): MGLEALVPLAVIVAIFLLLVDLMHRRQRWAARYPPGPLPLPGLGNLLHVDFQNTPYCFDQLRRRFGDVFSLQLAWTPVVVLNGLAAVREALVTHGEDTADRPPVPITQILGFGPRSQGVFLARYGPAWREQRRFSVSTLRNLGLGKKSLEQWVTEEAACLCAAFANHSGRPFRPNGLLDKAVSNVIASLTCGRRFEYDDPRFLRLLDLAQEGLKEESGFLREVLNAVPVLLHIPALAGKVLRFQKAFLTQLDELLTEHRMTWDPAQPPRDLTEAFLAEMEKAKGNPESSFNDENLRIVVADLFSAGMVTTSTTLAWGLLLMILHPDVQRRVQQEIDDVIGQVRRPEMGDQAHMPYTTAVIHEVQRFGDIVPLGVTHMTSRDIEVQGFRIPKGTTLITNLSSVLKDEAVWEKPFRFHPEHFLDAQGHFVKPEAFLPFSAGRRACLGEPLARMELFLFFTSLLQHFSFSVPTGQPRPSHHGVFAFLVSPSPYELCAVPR
Method in brief: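 Chemicals tested for interference with CYP2D6 activity; proluciferin substrate, NADPH regeneration, 1 h at room temperature, luminescent detection.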

[14] = molecular target: Cytochrome P450 2C9 (Homo sapiens) (UniProt P11712); test: Cytochrome P450 Family 2 Subfamily C Member 9 (CYP2C9) small molecule antagonists: luciferase reporter qHTS assay (AID 1671198); also: potency is read from the fitted curve at half-maximal effect; nearly all actives have a fitted effect of over 50% in size
Method in brief: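 P450-Glo proluciferin substrate with CYP2C9 enzyme; 10 min RT preincubation, then NADPH regeneration 1 h at 37C; luciferin detection reagent 20 min RT, luminescence in relative luminescence units.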

[15] = molecular target: Cytochrome P450 1A2 (Homo sapiens) (UniProt P05177); test: Cytochrome P450 Family 1 Subfamily A Member 2 (CYP1A2) small molecule antagonists: luciferase reporter qHTS assay (AID 1671199); also: nearly all actives have a fitted effect of over 50% in size; also: potency is read from the fitted curve at half-maximal effect
Sequence of UniProt P05177 (P05177 whole entry, looked up): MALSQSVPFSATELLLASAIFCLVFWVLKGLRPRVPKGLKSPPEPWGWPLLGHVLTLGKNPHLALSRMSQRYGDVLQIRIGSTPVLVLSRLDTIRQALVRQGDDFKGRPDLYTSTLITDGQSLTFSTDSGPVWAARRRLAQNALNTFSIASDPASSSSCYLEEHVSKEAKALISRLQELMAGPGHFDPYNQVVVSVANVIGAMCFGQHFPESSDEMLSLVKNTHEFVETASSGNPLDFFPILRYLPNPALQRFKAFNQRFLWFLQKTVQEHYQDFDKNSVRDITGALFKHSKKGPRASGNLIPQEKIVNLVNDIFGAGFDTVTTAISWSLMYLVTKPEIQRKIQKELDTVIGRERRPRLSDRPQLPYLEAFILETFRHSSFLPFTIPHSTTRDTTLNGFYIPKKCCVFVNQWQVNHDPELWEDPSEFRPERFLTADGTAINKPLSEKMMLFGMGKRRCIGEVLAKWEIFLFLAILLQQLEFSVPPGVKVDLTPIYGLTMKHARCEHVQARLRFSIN
Method in brief: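 Read-out is luminescence from luciferin detection reagent (20 min) proportional to CYP1A2 activity; compounds in DMSO preincubated 10 min with enzyme and proluciferin substrate, then NADPH regeneration solution, 1 h, room temperature.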

[16] = qHTS assay for identifying genotoxic compounds that show differential cytotoxicity against isogenic chicken DT40 cell lines with known DNA damage response pathways - Rev3 mutant cell line (AID 743014); details: chicken DT40 Rev3-/- viability, CellTiter-Glo, 40 h; activity, negative = cytotoxicity: at 68.4 µM (top of the series); also: potency is read from the fitted curve at half-maximal effect; nearly all actives have a fitted effect of over 55% in size
[17] = qHTS assay to identify small molecule antagonists of the estrogen receptor alpha (ER-alpha) signaling pathway - cell viability counter screen (AID 743074; calls by dose curve;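 also: HEK293 cells carrying ER-alpha-UAS-bla reporter stimulated with 17beta-estradiol; nearly all actives have a fitted effect of over 45% in size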; also: potency is read from the fitted curve at half-maximal effect)
[18] = molecular target: Cytochrome P450 2C19 (Homo sapiens) (UniProt P33261); test: Cytochrome P450 Family 2 Subfamily C Member 19 (CYP2C19) small molecule antagonists: luciferase reporter qHTS assay (AID 1671197); also: potency is read from the fitted curve at half-maximal effect; nearly all actives have a fitted effect of over 65% in size
Sequence of UniProt P33261 (P33261 whole entry, looked up): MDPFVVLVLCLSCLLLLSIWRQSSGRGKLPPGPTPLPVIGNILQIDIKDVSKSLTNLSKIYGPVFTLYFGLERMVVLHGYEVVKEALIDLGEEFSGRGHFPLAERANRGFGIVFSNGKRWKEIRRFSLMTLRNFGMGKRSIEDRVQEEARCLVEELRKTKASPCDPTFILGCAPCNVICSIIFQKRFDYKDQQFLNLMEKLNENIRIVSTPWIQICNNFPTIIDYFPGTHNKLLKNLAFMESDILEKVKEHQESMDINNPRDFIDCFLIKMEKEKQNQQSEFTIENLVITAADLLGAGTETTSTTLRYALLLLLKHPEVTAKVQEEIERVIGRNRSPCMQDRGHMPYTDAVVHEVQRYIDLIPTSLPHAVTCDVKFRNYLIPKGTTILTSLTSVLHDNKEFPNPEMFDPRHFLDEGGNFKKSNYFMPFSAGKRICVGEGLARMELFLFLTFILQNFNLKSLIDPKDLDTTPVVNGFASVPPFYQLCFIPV
Method in brief: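 P450-Glo CYP2C19 system: enzyme-substrate mix with compound 10 min at room temperature, then NADPH regeneration solution, 1 h at 37C. Proluciferin-to-luciferin conversion detected by luminescence after 20 min with detection reagent; ketoconazole as positive control.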

[19] = molecular target: Vitamin D3 receptor (Homo sapiens) (UniProt P11473); test: qHTS assay to identify small molecule antagonists of the vitamin D receptor (VDR) signaling pathway (AID 743223; active = well fitted inhibition curve with a large enough effect in the signal ratio in the repeat runs, not every such curve was filed as active; inconclusive = weak or mixed curves, or effect the other way; inactive = no such curve, though single readings can be large or run the other way; the % refers to the signal ratio; also: % is scaled to controls: 0 for no effect and ±100 for the full control effect); details: VDR-UAS-bla HEK293T, beta-lactamase FRET ratio, 16 h; activity change, negative = inhibition: at 61 µM (top of the series) unless noted
Sequence of UniProt P11473 (P11473 whole entry, looked up): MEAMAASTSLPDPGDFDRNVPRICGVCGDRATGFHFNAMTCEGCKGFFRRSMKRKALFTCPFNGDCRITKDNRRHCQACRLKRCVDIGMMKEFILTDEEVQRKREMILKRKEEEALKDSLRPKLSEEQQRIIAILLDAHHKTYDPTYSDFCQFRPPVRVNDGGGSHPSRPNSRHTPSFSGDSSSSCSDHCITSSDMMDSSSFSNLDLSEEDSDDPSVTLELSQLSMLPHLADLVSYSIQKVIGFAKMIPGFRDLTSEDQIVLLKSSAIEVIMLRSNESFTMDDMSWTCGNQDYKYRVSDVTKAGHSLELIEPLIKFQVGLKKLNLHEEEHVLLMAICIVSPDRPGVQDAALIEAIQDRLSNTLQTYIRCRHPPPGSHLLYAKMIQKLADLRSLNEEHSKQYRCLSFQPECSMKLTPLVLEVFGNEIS
Method in brief: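 VDR-bla cells were treated with compound plus 3 nM final 1alpha,25-dihydroxyvitamin D3 for 16 h at 37C. Beta-lactamase reporter read by B/G FRET substrate fluorescence after 2 h at room temperature. qHTS format.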

[20] = activation: at 76.8 µM (top of the series) unless noted
[21] = ratio activity, negative = MMP loss: at 83.2 µM (top of the series) unless noted
Tags tell the direction and shape of the fitted curve or compound fluorescence and quenching.

C[C@]12CC[C@H]3[C@@H](CCC4=CC(=O)CC[C@@H]43)[C@@H]1CC[C@@H]2OC(=O)CCc1ccccc1
active: Potency [1] 6.74 µM
inactive: Potency [3] | Potency [5] | Potency [6, 20]
inconclusive: Potency [2] 4.73 µM [cytotoxic, partial curve, poor fit] | activation [4] 30.2% | Potency [7] 26.8 µM [cytotoxic] | Potency [8] 26.6 µM [inhibitor, single point] | activity change, negative = inhibition [9] 10.2% [at 42.5 µM] | Potency [10] 2.66 µM [rising, full curve]

ClC(Cl)(Cl)Br
inactive: Potency [11, 21] | Potency [1] | Potency [4] | activation ([6]; at 76.8 µM (top of the series)) 10.9% | Potency [13]
inconclusive: Potency [12] 1.52 µM [rising, single point] | activation [6, 20] 9% [at 15.8 µM] | Potency [8] 0.0365 µM [inhibitor, single point] | Potency [14] 70.1 µM [inhibitor] | Potency [15] 7.55 µM [inhibitor, partial curve]

Nc1c(Br)cc([N+](=O)[O-])cc1[N+](=O)[O-]
inconclusive: Potency [16] 61.8 µM [cytotoxic, single point] | Potency [4] 2.76 µM [falling, partial curve, poor fit] | Potency [13] 71.8 µM [inhibitor, partial curve, poor fit]
inactive: Potency [6, 20]
active: Potency [11, 21] 8.73 µM | Potency [12] 55.1 µM | Potency [9] 27.6 µM

CNC(=O)O/N=C(\C)SC
inactive: Potency [3] | Potency [6, 20] | Potency [9]
inconclusive: ratio activity, negative = MMP loss [11, 21] 32.5% | Potency [17] 9.77 µM [rising, full curve, poor fit] | Potency [13] 63.3 µM [inhibitor, partial curve, poor fit] | Potency [18] 89.4 µM [inhibitor, single point]

ClC(Br)Br
inconclusive: Potency [11, 21] 67.4 µM [activator, single point] | activation [6, 20] -22.6% | Potency [18] 87.8 µM [inhibitor, single point]
inactive: Potency [15]

[N-]=[N+]=CC(=O)OC[C@H](N)C(=O)O
inactive: Potency [11, 21] | activation ([6]; at 35.3 µM (top of the series)) 0.0609%
inconclusive: activity change, negative = inhibition [19] 16.3% | activation [6, 20] 18.2% | Potency [15] 63.3 µM [inhibitor, partial curve]

CC(Oc1cccc(Cl)c1)C(=O)O (centres undefined)
inactive: Potency [2] | Potency [3] | Potency [19] | Potency [7]
inconclusive: Potency [12] 24.3 µM [rising, partial curve] | Potency [5] 0.0195 µM [rising, partial curve, poor fit] | Potency [6, 20] 19.5 µM [activator, partial curve] | Potency [8] 68.6 µM [inhibitor, single point]

O=CC=O
inconclusive: ratio activity, negative = MMP loss [11, 21] 12.8% | Potency [12] 13.3 µM [rising, single point]
inactive: ratio activity, negative = MMP loss ([11]; at 95.3 µM (top of the series)) 13.9% | Potency [17] | Potency [3] | Potency [6, 20] | Potency [7] | Potency [9]

OCCCl
active: Potency [6, 20] 19.5 µM
inactive: Potency [3] | Potency [7]

[Cl-].[Cl-].[Cl-].[Yb+3]
inconclusive: Potency [12] 0.243 µM [rising, single point] | activation [6, 20] -4.12% | Potency [7] 1.95 µM [cytotoxic, partial curve, poor fit]

COc1ccc(C(=O)c2c(C)n(CCN3CCOCC3)c3ccccc23)cc1
inconclusive: activity change, negative = inhibition [1] -0.529% | Potency [3] 33.5 µM [rising, single point] | Potency [5] 2.66 µM [rising, partial curve, poor fit] | activation [6, 20] -27.7% [at 35.3 µM] | activity change, negative = inhibition [9] -28% [at 42.5 µM] | Potency [10] 21.1 µM [rising, partial curve] | Potency [15] 24.5 µM [inhibitor, partial curve, poor fit]
inactive: Potency [7]
active: Potency [13] 15.5 µM

CC(C)=CCN1CC[C@@]2(C)c3cc(O)ccc3C[C@@H]1[C@@H]2C
inactive: Potency [11, 21] | Potency [3] | Potency [4] | Potency [7] | Potency [15]
inconclusive: Potency [12] 33.9 µM [cytotoxic, partial curve, poor fit] | Potency [17] 21.5 µM [cytotoxic, single point] | Potency [5] 0.478 µM [cytotoxic, full curve] | activation [6, 20] 0.86% | Potency [13] 0.312 µM [inhibitor, full curve, poor fit]
